# Results: PubChem BioAssay AID686978 (National Center for Advancing Translational Sciences (NCATS), 2013)
# The whole screen tested about 420,000 compounds, of which about 64,000 (15%) were called active. Inconclusive means that the source gave no clear call. Such entries were picked first, then a sample of the others. The call rests on the fitted dose curve; in most records, active means well fitted inhibition curve with a large enough effect; inconclusive means small, poorly fitted or top-dose-only effect; inactive means flat fitted curve, though single readings scatter. Potencies of inconclusive entries are left out as doubtful fits. Peptide text beside a SMILES is read from it. * marks the point of attachment. Boc = CC(C)(C)OC(=O)*; OBn = c1ccc(CO*)cc1
# Assay: qHTS for Inhibitors of human tyrosyl-DNA phosphodiesterase 1 (TDP1): qHTS in cells in absence of CPT; further: nearly all actives have a fitted effect of over 55% in size
# Details: DT40 Tdp1-/- hTDP1 cells, no CPT, ATP luminescence, 48 h; series mostly up to 46.2 µM
# Procedure, shortened: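 Chicken DT40 Tdp1-/- cells stably complemented with human TDP1 were seeded at 400 cells/well with DMSO in place of 20 nM camptothecin. After compound pinning, cells grew at least 48 hr at 37 °C; viability read by CellTiter-Glo luminescence.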
# Potency means the concentration at half of the fitted maximal effect; tags describe the fitted curve by direction and shape.
row,Structure (SMILES),Potency
1,Cc1cc(C)n2nc(SCc3nnc(SCc4ccccc4Cl)s3)nc2n1,"inconclusive [inhibitor, single point]"
2,O=C1C(=Cc2ccc(F)cc2)CCc2ccccc21,active: 20.6 µM
3,NC(=O)c1ccc(OCC(F)(F)F)nc1,inactive
4,Cc1cc(C(=O)Nc2ncc(C)s2)c2ccccc2n1,inactive
5,O=c1c(-c2ccco2)[n+]([O-])c2ccccc2n1OCc1ccccc1,active: 11.6 µM
6,COc1ccc(S(=O)(=O)N2CCOC23CCN(S(=O)(=O)c2ccccc2)CC3)cc1,"inconclusive [inhibitor, single point]"
7,O=C(OCC(=O)N1CCc2ccccc21)c1ccc(Cl)nc1,inactive
8,CCn1cc(C(=O)OCC(=O)Nc2cc(C)cc(C)c2)c(=O)c2ccc(C)nc21,"inconclusive [inhibitor, single point]"
9,O=C(CSC(=S)N1CCOCC1)c1cc2ccccc2oc1=O,"inconclusive [inhibitor, single point]"
10,Cc1ccccc1OCC(=O)NC(=S)Nc1cccc2cc(O)ccc12,inactive
11,CC1(C(=O)Nc2cccc3c2CCCC3)CCN1C(=O)CCC1CCCC1 (configuration not stated),"inconclusive [inhibitor, single point]"
12,COc1cccc(CN2CC(C(=O)NCc3ccc(C)o3)CCC2=O)c1 (configuration not stated),inactive
13,Cc1cc(C(=O)CSc2nc(N)cc(=O)[nH]2)c(C)n1CC1CCCO1 (configuration not stated),active: 18.4 µM
14,COc1ccc(N2CCN(C(CNS(=O)(=O)c3ccc4c(c3)OCCO4)c3ccco3)CC2)cc1 (configuration not stated),"inconclusive [inhibitor, single point]"
15,CC(=O)Oc1ccc(C2=NN(c3ccccc3)C(c3ccccc3)C2)cc1 (configuration not stated),inactive
16,O=C(NCc1ccncc1)c1cccc(S(=O)(=O)Nc2ccc(F)cc2)c1,"inconclusive [inhibitor, single point]"
17,Cc1cccc(-c2nc3ccccc3c(=O)n2NC(=S)N(C)C)c1,active: 8.2 µM
18,CCc1nc(C)cn1S(=O)(=O)c1cc(Cl)c(OC)cc1Cl,"inconclusive [inhibitor, partial curve]"
19,Cc1nn(CCCC(=O)NCc2ccccc2)c(=O)c2nn(-c3ccccc3)c(C)c12,"inconclusive [inhibitor, single point]"
20,CC(NC(=O)OC(C)(C)C)C(=O)NC(CCC(=O)OCc1ccccc1)C(N)=O (stereo not drawn) (Boc-Ala-Glu(OBn)-NH2; configuration not given here),active: 29.1 µM
21,C#CCOCCOCCOCCNc1nc(N2CCN(C(=O)[C@H](CC(N)=O)n3cc(C(N)[C@@H](C)CC)nn3)CC2)nc(N2CCN(C(=O)[C@H](CCC(=O)O)n3cc([C@@H](N)CCCCN)nn3)CC2)n1 (some centres not stated),inactive
22,Cc1cccc(NC(=O)C(C)Sc2nc3ccccc3c(=O)n2CCCN2CCOCC2)c1 (configuration not stated),inactive
23,Cc1cc(C(F)(F)F)n(-c2nc(C(=O)N/N=C/c3ccc(F)cc3)cs2)n1,"inconclusive [inhibitor, single point]"
24,CC(C)c1nnc(N2C(=O)c3oc4ccccc4c(=O)c3C2c2cccc(O)c2)s1 (configuration not stated),inactive

row,Structure (SMILES),Potency
1,Cc1[nH]c2ccccc2c1SCc1ccccc1,"inconclusive [inhibitor, single point]"
2,O=C(CSc1cn(CC(=O)N2CCCCCC2)c2ccccc12)Nc1ccccc1F,"inconclusive [inhibitor, single point]"
3,COc1ccc(C/C(N)=N/OC(=O)c2cccs2)cc1,"inconclusive [inhibitor, single point]"
4,CC(C)(C)C1CCC(C(=O)Nc2ccccc2N2CCOCC2)CC1 (configuration not stated),"inconclusive [inhibitor, single point]"
5,CCCC(=O)N/C(N)=N/c1nc(C)c2cc(C)ccc2n1,active: 23.1 µM
6,O=C(NCC1CCCO1)C(c1cccs1)N(Cc1ccccc1Cl)C(=O)c1ccc(-c2ccccc2)[nH]1 (configuration not stated),active: 23.1 µM
7,COc1cccc(NC(=O)CSc2nccn2-c2cccc(OC)c2)c1,"inconclusive [inhibitor, single point]"
8,COCCNC(=O)C1(C)CCCN(C(=O)c2ccccc2F)C1 (configuration not stated),inactive
9,CCC(=O)N1CCc2cc(S(=O)(=O)NCCC(=O)Nc3ccc(OC)c(Cl)c3)ccc21,inactive
10,Cn1c2c(c(=O)n(C)c1=O)CN(CCCN1CCOCC1)CN2,inactive
11,CCOc1ccccc1OC(=O)c1cc2ccccc2oc1=O,"inconclusive [inhibitor, single point]"
12,COc1cccc(C=NNC(=O)c2ccncc2)c1O,active: 0.184 µM
13,CCOc1ccc(NC(=O)CN(C)C(=O)c2ccccc2CCc2ccccc2)cc1OCC,"inconclusive [inhibitor, single point]"
14,CCOc1cc(/C=C(\C#N)c2nc(-c3cccs3)c(NC(C)=O)s2)ccc1O,active: 3.66 µM
15,CSc1nccc(-c2nn(-c3ccc(C)cc3)ccc2=O)n1,active: 5.8 µM
16,O=P(c1ccccc1)(c1ccccc1)C1CCCO1 (configuration not stated),"inconclusive [inhibitor, single point]"
17,CCCCn1c2nc3ccccc3nc2c2c(=O)n(-c3ccccc3)cnc21,"inconclusive [inhibitor, single point]"
18,O=C(CCCOc1ccc(Cl)cc1)N1CCCCCC1,"inconclusive [inhibitor, single point]"
19,Cc1ccc(NC(=O)Cn2c(=O)n(CCCCCC(=O)NCc3ccc(F)cc3)c(=O)c3sccc32)c(C)c1,"inconclusive [inhibitor, single point]"
20,O=C(Oc1ccccc1)N1CCC2(CC1)CN(c1ncccn1)C2,"inconclusive [inhibitor, partial curve]"
21,CCN(C(=O)C1CCN(S(=O)(=O)c2ccc3c(c2)CCCN3C(=O)C2CCC2)CC1)c1cccc(C)c1,active: 18.4 µM
22,COc1ccc(/C=C(\NC(=O)c2ccccc2)C(=O)NCCN2CCOCC2)cc1OC,inactive
23,COc1ccc(CCC(=O)NO)cc1,active: 15.8 µM
